This passage reports EC50 results from patent US20060160798A1, “Viral polymerase inhibitors” (Boehringer Ingelheim (Canada) Ltd., priority 2001, published 2006).

Molecules are shown by their SMILES.

One test relates to Huh7 cells that stably maintain a subgenomic HCV replicon (S22.3 cell-line). The test is described as follows: Cell based HCV RNA replication assay (S22.3 replicon cells, real-time RT-PCR). The conditions noted are these: Hepatitis C virus, Huh-7, 72 h, S22.3 cells, 72 hours incubation, HCV RNA by RT-PCR.
Regarding `Cc1c(C(=O)O)sc2ccc(NC(=O)C3(NC(=O)c4ccc5c(C6CCCCC6)c(-c6ccoc6)[nH]c5c4)CCCC3)cc12` [Entry 2046], the EC50 is less than 500 nM.

For the compound `Cn1c(-c2nc3ccccc3[nH]2)c(C2CCCCC2)c2ccc(C(=O)NC(C)(C)C(=O)Nc3ccc(/C=C/C(=O)O)cc3)cc21` [Entry 2109], the EC50 lay in the range of 500 to 5000 nM.

Consider `CC(C)(NC(=O)c1ccc2c(C3CCCCC3)c(-c3ccoc3)[nH]c2c1)C(=O)Nc1ccc(-c2nc(C(=O)O)cs2)cc1` [Entry 2017], for which the EC50 was less than 500 nM.

`O=C(O)/C=C/c1ccc(NC(=O)C2(NC(=O)c3ccc4c(C5CCCCC5)c(-c5ccco5)[nH]c4c3)CCCC2)cc1` [Entry 2037] registered an EC50 of less than 500 nM.

Consider `CC(=O)N1CCCC(NC(=O)c2ccc3c(C4CCCCC4)c(-c4ccccn4)n(C)c3c2)(C(=O)Nc2ccc(/C=C/C(=O)O)cc2)C1` (stereo not shown) [Entry 2105], for which the EC50 was less than 500 nM.

`CNC(=O)C(=O)Nc1ccc(NC(=O)C(C)(C)NC(=O)c2ccc3c(C4CCCCC4)c(-c4ccccn4)n(C)c3c2)cc1` [Entry 2076]: the EC50 is less than 500 nM.

`Cn1c(-c2cccc3cccnc23)c(C2CCCCC2)c2ccc(C(=O)NC(C)(C)C(=O)Nc3ccc(/C=C/C(=O)O)cc3)cc21` [Entry 2082]: the EC50 was less than 500 nM.

Turning to `O=C(NC1(C(=O)Nc2ccc3c(Cl)c(C(=O)O)sc3c2)CCCC1)c1ccc2c(C3CCCCC3)c(-c3ccoc3)[nH]c2c1` [Entry 2013], the EC50 was less than 500 nM.

In turn, `Cn1c(C(N)=O)cc2cc(NC(=O)C(C)(C)NC(=O)c3ccc4c(C5CCCCC5)c(-c5ccccn5)n(C)c4c3)ccc21` [Entry 2075] displayed an EC50 of less than 500 nM.

Staying with this test, now noted: Hepatitis C virus, Huh-7, Table 6.
As for `Cn1c(-c2ccc(C(F)(F)F)cn2)c(C2CCCC2)c2ccc(C(=O)NC3(C(=O)Nc4ccc(/C=C/C(=O)O)cc4)CCC3)cc21` [Entry 6041], the EC50 is less than 500 nM.

In the case of `Cn1c(-c2ccncc2)c(C2CCCC2)c2ccc(C(=O)NC3(C(=O)Nc4ccc(/C=C/C(=O)O)cc4)CCCC3)cc21` [Entry 6066], the EC50 is less than 500 nM.

The compound `Cn1c(-c2csc(Nc3ccccn3)n2)c(C2CCCC2)c2ccc(C(=O)NC(C)(C)C(=O)Nc3ccc(/C=C/C(=O)O)cc3)cc21` [Entry 6015] registered an EC50 of less than 500 nM.

In turn, `Cc1cccc(-c2c(C3CCCC3)c3ccc(C(=O)NC4(C(=O)Nc5ccc(/C=C/C(=O)O)cc5)CCC4)cc3n2C)n1` [Entry 6069] gave a concentration giving a half-maximal response (EC50) of less than 500 nM.
